Data published in publication PMC12136788.
The list shows a part of the results.

B1: ENSG00000110321:stop:overlap|stop_codon|ENSG00000110321|stop_codon|NA|stop_codon (ssRNA)
RNA: GGGAGUUCUACAGUCCGACGAUCACAACUCCGCAAACGAAAAAGAACGACAUGAUGCAAUCUUCAGGAAAGUAAGAGGGAUCUAGGGGUGUUUAUUCCUGCUCCUAUGGCUCAAGGGAUGAGAAGUGACUUCUUUCUGGAGGGCAACAGAGGAUUGAGCAUCA
B2: chr12:64128047:64128160:+|CDS|ENSG00000196935|unk|FALSE|unique (ssRNA)
RNA: GGGAGUUCUACAGUCCGACGAUCGGCAGCCUGACCAACAUCAGCCGGCACGACUCCCUCAAGAAGAUCGACAGCCCUCCCAUUAGAAGGUCCACGUCAUCAGGGCAAUACACGGGCUUCAAUGACCACAAGCCACUGGACCCACAACAGAGGAUUGAGCAUCA
B3: chr3:30797676:30800881:-|three_prime_utr|ENSG00000144644|control|control|control (ssRNA)
RNA: GGGAGUUCUACAGUCCGACGAUCUGUGUGUGUGUGUGUGUGUGUGUGUGUGUGUGUGUGUGUGUGUCUAUCUGUGUCUGUAAUAGGAAGACCUAAGGAAAGUAAUACUUGAAAUGUGUUGCAAGUACAUGUUUUCAUUUGUGCCAACAGAGGAUUGAGCAUCA
B4: chr9:101390727:101390839:-|CDS|ENSG00000136897|unk|FALSE|unique (ssRNA)
RNA: GGGAGUUCUACAGUCCGACGAUCCAGAAAAGAGAAAGAGCCAGUGGUUGUUGAGACAGUAGAAGAGAAAAAGGAACCUAUCCUAGUGUGUCCACCUUUACGAAGCCGAGCAUACACACCACCUGAAGAUCUCCAGAGUCGUUUCAACAGAGGAUUGAGCAUCA
B5: ENSG00000119689:stop:overlap|stop_codon|ENSG00000119689|stop_codon|NA|stop_codon (ssRNA)
RNA: GGGAGUUCUACAGUCCGACGAUCCUUUCCUCCGCAAAAUCAAGGCAGCGGUAGAGGAUCCCAGAGUCCUCCUCCUGGAUCUUUAGGAGGAACCCACACACCCUACAAGUUGAUCAUGCAGGAACUGAAAACCAGUCUUCUCCCCAACAGAGGAUUGAGCAUCA
B6: ENSG00000107863:be:win_751|CDS|ENSG00000107863|bound_else_gene|NA|bound_elsewhere_windowed (ssRNA)
RNA: GGGAGUUCUACAGUCCGACGAUCCCUCCAUCACCAACAGAUGUUGCAAAAUCAAACACAGCAGUGUGUGUUUGCAAUGAAAGUGUAAGGACUGUCAUUGUGCCUUCUGAGAAGGUUGUAGAUUUGUUAUCCAAUAGAAACAACCAACAGAGGAUUGAGCAUCA
B7: chr5:82277714:82277885:-|CDS|ENSG00000186468|unk|FALSE|unique (ssRNA)
RNA: GGGAGUUCUACAGUCCGACGAUCAACUAAAAUAUUUAAUUUUUAGGCAAGUGUCGUGGACUUCGUACUGCUAGGAAGCUCCGUAGUCACCGACGAGACCAGAAGUGGCAUGAUAAACAGUAUAAGAAAGCUCAUUUGGGCACACAACAGAGGAUUGAGCAUCA
B8: ENSG00000070961:be:win_4001|3pUTR|ENSG00000070961|bound_else_gene|NA|bound_elsewhere_windowed (ssRNA)
RNA: GGGAGUUCUACAGUCCGACGAUCAGUAAAACUGGGCAAGACAAAGAGCCCUGGAUCGUUGAAUUGAUAGUUUAAUUUCUGCUGUUGGCUGUUAAUAAUUUGGAUUAUUUAUGUUUAUAAAUGAUACAGAUCUGUUUACAAGGUCAACAGAGGAUUGAGCAUCA
B9: chr15:85581792:85581893:+|CDS|ENSG00000170776|unk|total|mutant (ssRNA)
RNA: GGGAGUUCUACAGUCCGACGAUCUGCCCAGGACGCACCUCUGCCUAAGGGGGCAGACUUGACCGAGGAGGCUGCCAGCCGUACCGUGGAUGCUGUCAUCGAACAAGUCAAGGCCGCUGGAGCACUGCUUACUGAGGGGGAGGCCAACAGAGGAUUGAGCAUCA
B10: chr10:116062369:116062470:-|3pUTR|ENSG00000151892|msi1|FALSE|unique (ssRNA)
RNA: GGGAGUUCUACAGUCCGACGAUCCUUUUUUCACUUCAAAAUGUUUUCAAGGGAAAUUCAGCAGACACCCAACUGUAUUUAAUUAGUGAAAAGAUCUAUAAAGACUCUUACUUUGAAUAAACACAUUAAGUAAGUGUGUCAAAACAACAGAGGAUUGAGCAUCA
B11: ENSG00000136451:be:win_1451|CDS_3pUTR|ENSG00000136451|bound_else_gene|NA|bound_elsewhere_windowed (ssRNA)
RNA: GGGAGUUCUACAGUCCGACGAUCCUCCAAUGAAUCUACCCACACCUAUGACAUUAGCCGCCCCUCUCAAUAUAGCAAUGAGACCUGUAGAGAGCAUGCCUUUCUUGCCCCAAGCUUUGCCUACAUCACCGCCUUGGUAAACAGCAACAGAGGAUUGAGCAUCA
B12: chr12:107752058:107752159:-|CDS|ENSG00000110851|unk|total|mutant (ssRNA)
RNA: GGGAGUUCUACAGUCCGACGAUCUAACUCUAUAAAUGUUGAUGGUAAUACAGCAUUAUCUAUCACCAAUAACCCUUCAGCACCCGAUCCCUAUCAGUCCAAUGGAAAUGUUGGAUCCGAACCAGGCAUUGUUUCAACCGACUCCAACAGAGGAUUGAGCAUCA
B13: chrX:120253675:120253799:+|CDS|ENSG00000177485|unk|total|mutant (ssRNA)
RNA: GGGAGUUCUACAGUCCGACGAUCUAAAAUUGUUCGUGUCCGAUCAGAUUUGCUUGAUGAGUUAAUUAAAUCAGGGCAGUUAUCCGGAGUGAAAUUUACCGCAGAGCUUGGUGUCCCAUUGUCACAGGUUAAAAGCAUCUCAGGCAACAGAGGAUUGAGCAUCA
B14: chr17:3448806:3449149:-|CDS|ENSG00000141255|control|control|control (ssRNA)
RNA: GGGAGUUCUACAGUCCGACGAUCAACCGAGCUACUCAGACAAACACAUUCAUCAAAAAUAUCUGGCUGCACAAUGAGAGGGCUAGACAAAAACAGUGCACUACAGACACUUAAGCCCAAUUUUCAACAAAAUCAAUAUAAGAACAACAGAGGAUUGAGCAUCA
B15: ENSG00000107863:be:win_6401|3pUTR|ENSG00000107863|bound_else_gene|NA|bound_elsewhere_windowed (ssRNA)
RNA: GGGAGUUCUACAGUCCGACGAUCCUUUUAAUACAGUUUUUGAGUUUUGUGUGACUUGAAUUUUUAAUCUUUCUGUAAAAUACGUAACUUAAAUGAACAUAUUAAAUGUGUAUCUUUUCUUCAGAUACCAGAUUUGAUAUAAUGCAACAGAGGAUUGAGCAUCA
B16: ENSG00000136451:be:win_1351|CDS|ENSG00000136451|bound_else_gene|NA|bound_elsewhere_windowed (ssRNA)
RNA: GGGAGUUCUACAGUCCGACGAUCCCAUUAUCCAUGACCUCUCCUUUAACACUCACUACCCCAGUCAACCUCCCCACCCCCGUCACUGCCCCAGUGAAUAUAGCACACCCUGUCACCAUCACAUCUCCAAUGAAUCUACCCACACAACAGAGGAUUGAGCAUCA
B17: chr10:24583932:24584033:-|3pUTR|ENSG00000107863|unk|FALSE|bound_elsewhere (ssRNA)
RNA: GGGAGUUCUACAGUCCGACGAUCAACAAAAGUGCCUCAUCAUAAAAAUACAGUUGGUUUUUAGGGUGCCAUAUUGUUAAAAUUAGAUAACUUACUUACAUUGAAUAAACGAAUGCGUUUUAUUGGUAACAGAUAUCAUUACAUCAACAGAGGAUUGAGCAUCA
B18: chr7:36452941:36453042:+|3pUTR|ENSG00000011426|msi1|total|mutant (ssRNA)
RNA: GGGAGUUCUACAGUCCGACGAUCGUCUUGAAGCAGCAACGUCUUUCAGGGGUUGGAGACAGAAACCCAUUCUCCAAUCUCAGCCGUUUUUUCGAAAGGCUGUGAUCAUUUAUUGAUCGUGAUAUGACUUGUUACCCGGGUACUCAACAGAGGAUUGAGCAUCA
B19: ENSG00000198589:be:win_8501|CDS_3pUTR|ENSG00000198589|bound_else_gene|NA|bound_elsewhere_windowed (ssRNA)
RNA: GGGAGUUCUACAGUCCGACGAUCUUGUGCUAUUUUACAACGACUUUAACCGGUGGCAUCAUGAAUACCAAACCCGCUACUGAUGGUGACAGCUGUACAUCAACUCUGCCCCUAGGAUGAGCAGAAGUACCUGGAGCAUCAUUCCAACAGAGGAUUGAGCAUCA
B20: chr1:93361585:93361687:+|3pUTR|ENSG00000117505|unk|total|mutant (ssRNA)
RNA: GGGAGUUCUACAGUCCGACGAUCUUUAACUUGCCGUUACCGUUUACUUAUUGUUUUCCGAAUUACUUUUACAUUUUCCCAACCCGAUGGCCCCGAGUCCAACAUUACCUUUUGAGAUGACAUUAUUGUCUCCAUAAUUGAGUGCAACAGAGGAUUGAGCAUCA
B21: chr10:110898111:110898227:+|3pUTR|ENSG00000150593|unk|total|mutant (ssRNA)
RNA: GGGAGUUCUACAGUCCGACGAUCAUAAGAACUCUUGCAGUCUCCGAUGUUAUAAAAAUAUAUAUCUGAAUUGUAAGAGUUGUCCGCACAAGUUUUUUUUUUUUUUUUUUUUAAGCACUUGUUUUGGGUACAAGGCAUUUCUGACAACAGAGGAUUGAGCAUCA
B22: ENSG00000136451:be:win_3601|3pUTR|ENSG00000136451|bound_else_gene|NA|bound_elsewhere_windowed (ssRNA)
RNA: GGGAGUUCUACAGUCCGACGAUCCCUGGAUUGGGAGGCACAGUGGCCACAUUUGGAGGAAGUUCACAUUUCCUGGCAUGCAGACCCAAAACUGGGUUCUGGCUCUGCCUGCUGGGAUCUGUUAUCUCUGGUGGGCUGGCAGUCCAACAGAGGAUUGAGCAUCA

biological target: MSI1 full-length (mouse, UniProt Q61474 1-362); assay: nsRBNS (natural sequence RNA bind-n-seq); RBNS binding buffer (assumed for nsRBNS): 25 mM Tris pH 7.5, 150 mM KCl, 3 mM MgCl2, 0.01% Triton X-100, 500 ug/ml BSA, 20 U/ml SUPERase-In, 4 C; UNK is unkempt and MSI1 is Musashi-1; names of the RNAs are library labels; protein concentration not given here; high values mean tight binding
Sequence of UniProt Q61474 (Q61474 whole entry): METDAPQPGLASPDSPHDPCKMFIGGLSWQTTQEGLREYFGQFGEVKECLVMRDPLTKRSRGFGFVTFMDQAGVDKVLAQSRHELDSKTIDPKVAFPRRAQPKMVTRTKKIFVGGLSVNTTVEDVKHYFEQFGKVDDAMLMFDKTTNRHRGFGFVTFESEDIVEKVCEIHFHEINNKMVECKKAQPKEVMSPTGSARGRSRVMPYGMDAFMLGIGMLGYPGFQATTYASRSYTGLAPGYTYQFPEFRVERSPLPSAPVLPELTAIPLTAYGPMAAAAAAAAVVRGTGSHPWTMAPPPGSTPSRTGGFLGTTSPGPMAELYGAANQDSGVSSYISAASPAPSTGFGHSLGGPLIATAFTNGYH

In order of rising binding signal:
1. B13  0.298 enrichment R
2. B12  0.32 enrichment R
3. B15  0.392 enrichment R
4. B18  0.402 enrichment R
5. B22  0.459 enrichment R
6. B8  0.47 enrichment R
7. B14  0.471 enrichment R
8. B6  0.479 enrichment R
9. B9  0.526 enrichment R
10. B5  0.536 enrichment R
11. B4  0.597 enrichment R
12. B3  0.617 enrichment R
13. B2  0.622 enrichment R
14. B19  0.658 enrichment R
15. B10  0.713 enrichment R
16. B7  0.842 enrichment R
17. B21  0.994 enrichment R
18. B17  1.22 enrichment R
19. B20  1.55 enrichment R
20. B16  2.42 enrichment R
21. B11  2.88 enrichment R
22. B1  7.48 enrichment R
